From PubChem BioAssay AID1645882 (National Center for Advancing Translational Sciences (NCATS), 2021)
The campaign covered roughly 16,000 compounds. About 120 (0.75%) were called active. About 4% were inconclusive and are not listed. Calls follow the shape of the dose curve; as a rule, active = well fitted inhibition curve with a large enough effect; inconclusive = small, poorly fitted or top-dose-only effect; inactive = no such curve, though single readings can be large or run the other way. The list shows a part of the results.

target: Rap guanine nucleotide exchange factor 3 (Homo sapiens) (UniProt O95398); assay: Validation qHTS for antagonist of cAMP-regulated guanine nucleotide exchange factor 3 (EPAC1); conditions: EPAC1 Rap1B-BODIPY-GDP exchange, fluorescence; series mostly up to 150 µM; activity change, negative = inhibition: at the top concentration; also: nearly all actives have a fitted effect of over 75% in size
Excerpt: Assay Provider (PI): Xiaodong Cheng Ph.D.
The University of Texas Medical Branch, […], TX
In multi-cellular eukaryotic organisms, the effects of cAMP are transduced by two ubiquitously-expressed intracellular cAMP receptors, the classic protein kinase A/cAMP-dependent protein kinase (PKA/cAPK) and the more recently discovered exchange protein directly activated by cAMP/cAMP-regulated guanine nucleotide exchange factor (EPAC/cAMP-GEF). Both PKA and EPAC are ubiquitously expressed in all tissues, and an increase in intracellular cAMP levels will lead to the activation of both PKA and EPAC. Therefore, careful dissections of the individual role and relative contribution of EPAC and PKA within the overall cAMP signaling in various model systems are critical for further elucidating the mechanism of cAMP signaling. To date no EPAC-specific antagonists and agonist, as well as isoform-specific agonists have been reported, and developing EPAC-specific pharmacological probes to determine the physiological functions that EPAC play in the overall cAMP-mediated signaling remains a major challenge within the research field. Furthermore, identified regulators of EPAC may lead to new mechanism-based therapeutic strategies specifically targeting the EPAC / cAMP-signaling components as EPAC has been implicated to play important roles in major human pathological conditions such as diabetes, heart disease, and cancer.
This qHTS will be used to screen the Molecular Libraries Small Molecule Repository (MLSMR) as a concentration-titration series using the NCGC unique quantitative screening (qHTS) platform to find activators for EPAC1. In addition, this assay will also be used as a counterscreen for the EPAC2 qHTS. This fluorescent based assay is developed and validated for EPAC1 that measures exchange using EPAC effector Rap1 complex with BODIPY-GDP, a GDP analog with a tethered fluorophores. Activators are identified by monitoring the change in fluorescence signal as the exchanged free BODIPY-GDP has a reduced fluorescence compared to Rap1-bound BODIPY-GDP. Increase in signal (activation) is the desired outcome for the EPAC1 agonist while no activity in this assay is desired for the EPAC2 agonist counterscreen.
[1] de Rooij, J., Zwartkruis, F. J., Verheijen, M. H., Cool, R. H., Nijman, S. M., Wittinghofer, A., and Bos, J.L. (1998) Nature 396, 474-477.
Briefly, three uL of reagents (100 nM EPAC1, 250 nM RAP1B-BODIPY-GDP, 50 uM GDP) were dispensed into a 1536-well Greiner black solid-bottom medium binding assay plate. Controls and test compounds (23 nL) were transferred to the plate via a Kalypsys pin tool equipped with a 1536-pin array. The plates were centrifuged at 1,000 rpm for 15 seconds followed by 5 minute incubation at room temperature. The assay plates were read at 5 minute intervals for 30 minutes in the ViewLux plate reader using 480nm excitation and 540nm emission filters. The results were normalized to the […] positive control ATA and DMSO.

UniProt O95398, sequence (O95398 whole entry, looked up): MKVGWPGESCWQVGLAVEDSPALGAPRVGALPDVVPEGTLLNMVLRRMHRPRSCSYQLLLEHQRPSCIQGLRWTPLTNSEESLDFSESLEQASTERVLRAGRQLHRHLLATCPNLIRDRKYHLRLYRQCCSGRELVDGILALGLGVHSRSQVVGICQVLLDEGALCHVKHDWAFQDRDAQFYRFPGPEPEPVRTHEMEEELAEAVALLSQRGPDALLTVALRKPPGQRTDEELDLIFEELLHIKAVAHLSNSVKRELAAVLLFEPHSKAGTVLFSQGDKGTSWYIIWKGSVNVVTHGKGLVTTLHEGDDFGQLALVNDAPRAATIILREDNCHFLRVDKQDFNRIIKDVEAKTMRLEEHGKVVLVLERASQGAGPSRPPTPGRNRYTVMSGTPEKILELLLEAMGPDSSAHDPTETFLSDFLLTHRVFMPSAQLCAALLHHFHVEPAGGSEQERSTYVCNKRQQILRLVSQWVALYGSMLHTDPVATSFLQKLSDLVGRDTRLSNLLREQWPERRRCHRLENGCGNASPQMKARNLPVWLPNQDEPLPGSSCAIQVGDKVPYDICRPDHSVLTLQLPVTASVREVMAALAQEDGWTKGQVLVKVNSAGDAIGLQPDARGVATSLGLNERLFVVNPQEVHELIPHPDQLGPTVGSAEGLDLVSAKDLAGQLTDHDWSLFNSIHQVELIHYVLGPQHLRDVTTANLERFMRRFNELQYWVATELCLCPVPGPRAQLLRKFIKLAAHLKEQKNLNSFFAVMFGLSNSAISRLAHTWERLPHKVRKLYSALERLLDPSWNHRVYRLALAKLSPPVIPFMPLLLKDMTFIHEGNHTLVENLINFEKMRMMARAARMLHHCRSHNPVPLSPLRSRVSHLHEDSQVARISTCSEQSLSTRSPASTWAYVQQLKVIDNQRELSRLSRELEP

For `COC(=O)[C@@H](N)CCCN/C(N)=N/[N+](=O)[O-]`, which “activity change, negative = inhibition” value is on record?
Its value is inactive: 12.5%.

Which “activity change, negative = inhibition” value does the source give for `O=C1C=CC[C@@H]2[C@H]3CCCN4CCC[C@@H](CN12)[C@@H]34` here?
The value was inactive: 20%.

With `CC12NC(Cc3ccccc31)c1ccccc12` (configuration not stated) as the compound, how does the “activity change, negative = inhibition” value read?
Its value is inactive: 18.1% [at 75.8 µM].

Which “activity change, negative = inhibition” value does the source give for `CC(C)(C#N)O[C@H]1OC(CO)C(O)C(O)C1O` (some centres not stated) here?
Its value is inactive: 9.05%.

For `O=Cc1ccco1`, which “activity change, negative = inhibition” value is on record?
The value was inactive: 0.479%.

How did the “activity change, negative = inhibition” value turn out when `CN1CC[C@@]2(c3cccc(O)c3)Cc3nc4ccccc4cc3C[C@H]2C1` was run?
Its value is inactive: 8.08%.

With `C[C@]12C[C@H]3S[C@H]3C[C@@H]1CC[C@@H]1[C@@H]2CC[C@]2(C)[C@@H](O)CC[C@@H]12` as the compound, how does the “activity change, negative = inhibition” value read?
Its value is inactive: 15.8% [at 75.8 µM].

With `CNC(C)Cc1ccccc1` (configuration not stated) as the compound, how does the “activity change, negative = inhibition” value read?
Its value is inactive: 26.3% [at 320 µM].

`COP(=O)(OC)C(O)C(Cl)(Cl)Cl` (configuration not stated) was tested. Which “activity change, negative = inhibition” value did it give?
The value was inactive: -0.208%.

For `CCCC(C)C1(CC)C(=O)NC(=O)NC1=O` (configuration not stated), which “activity change, negative = inhibition” value is on record?
The value was inactive: 14.6%.

`C=CCc1ccc2c(c1)OCO2` was tested. Which “activity change, negative = inhibition” value did it give?
The value was inactive: 1.77%.

Which activity change, negative = inhibition does the source give for `Oc1cc2c(cc1O)[C@H]1c3ccccc3CN[C@H]1CC2` here?
The activity change, negative = inhibition was “inactive”.

For `COc1cc2c(cc1OC)[C@@H]1C(=O)c3ccc(O)c(CC=C(C)C)c3OC1CO2` (some centres not stated), which “activity change, negative = inhibition” value is on record?
The value was inactive: 5.37%.

With `Fc1ccc(C(OCCN2CCN(C/C=C\c3ccccc3)CC2)c2ccc(F)cc2)cc1` as the compound, how does the “activity change, negative = inhibition” value read?
Its value is inactive: -27.7%.

`CC1(C)C(=O)C=C[C@@]2(C)C1CC(O)[C@]1(C)C2CC[C@@]2(C)C(c3ccoc3)OC(=O)C3O[C@]312` (some centres not stated) was tested. Which “activity change, negative = inhibition” value did it give?
Its value is inactive: -19.8%.

For `C=CCN1CC[C@]23c4c5ccc(O)c4O[C@H]2C(=O)CC[C@@]3(O)[C@H]1C5`, which activity change, negative = inhibition is on record?
The activity change, negative = inhibition was “inactive”.

`CCCOC(=O)c1cc2c(cn1)[nH]c1ccccc12` was tested. Which “activity change, negative = inhibition” value did it give?
Its value is inactive: -20.7%.

With `Cc1ccc2cc3c(ccc4ccccc43)c3c2c1CC3` as the compound, how does the “activity change, negative = inhibition” value read?
The value was inactive: 24.2%.

With `O=C(Nc1cccc(F)c1)N1CC2(CCNCC2)C1` as the compound, how does the “activity change, negative = inhibition” value read?
The value was inactive: 5.21%.

How did the activity change, negative = inhibition turn out when `OCCOc1ccccc1` was run?
The activity change, negative = inhibition was “inactive”.

`CCN1C[C@@]2(C)CC[C@@H](OC)[C@@]34C2C(O)[C@@]2(OCO[C@]25CC(OC)C2C[C@@]3(O)C5C2O)C14` (some centres not stated) was tested. Which “activity change, negative = inhibition” value did it give?
Its value is inactive: 109%.

Which activity change, negative = inhibition does the source give for `ClC1C(Cl)C(Cl)C(Cl)C(Cl)C1Cl` (configuration not stated) here?
Its activity change, negative = inhibition is “inactive”.

For `O=C(CN1CCCC2CCCCC21)c1ccc(I)cc1` (configuration not stated), which “activity change, negative = inhibition” value is on record?
The value was inactive: 10.8%.

How did the activity change, negative = inhibition turn out when `CCCCC[C@@H](/C=C/C=C\C/C=C\C/C=C\CCCC(=O)O)OO` was run?
Its activity change, negative = inhibition is inactive: 7.56% [at 1.57 µM].

`CN1CCC2(CC1)CCN(C(=O)Oc1ccccc1)CC2` was tested. Which “activity change, negative = inhibition” value did it give?
Its value is inactive: 11.3%.

Which “activity change, negative = inhibition” value does the source give for `O=c1n(Cl)c(=O)n(Cl)c(=O)n1Cl` here?
Its value is inactive: 17.9%.

With `C[C@@H]1O[C@H](C[N+](C)(C)C)C[C@H]1O` as the compound, how does the “activity change, negative = inhibition” value read?
Its value is inactive: -3.32% [at 75.8 µM].

`CP(=O)(O)C1=CCNCC1` was tested. Which activity change, negative = inhibition did it give?
Its activity change, negative = inhibition is “inactive”.

Which “activity change, negative = inhibition” value does the source give for `Cn1cc(C2=C(c3cn(C4CCN(Cc5ccccn5)CC4)c4ccccc34)C(=O)NC2=O)c2ccccc21` here?
Its value is inactive: 26.7%.

How did the “activity change, negative = inhibition” value turn out when `NC(=O)c1cc(N2CC2)c([N+](=O)[O-])cc1[N+](=O)[O-]` was run?
The value was inactive: -0.147% [at 75.8 µM].

With `O=[N+]([O-])c1ccc(F)c([N+](=O)[O-])c1` as the compound, how does the “activity change, negative = inhibition” value read?
Its value is inactive: 2.44%.

With `COC(=O)C1=CO[C@@H](C)[C@@H]2CN3CCc4c([nH]c5cc(OC)ccc45)[C@@H]3C[C@H]12` as the compound, how does the “activity change, negative = inhibition” value read?
The value was inactive: 15.7%.

How did the “activity change, negative = inhibition” value turn out when `C[C@]12CCC(=O)C=C1C=C[C@@H]1[C@@H]2CC[C@@]2(C)[C@H]1CC[C@@]2(O)CCC(=O)O` was run?
The value was inactive: 16.8% [at 75.8 µM].

How did the “activity change, negative = inhibition” value turn out when `[Cl-].[Cl-].[Hg+2]` was run?
Its value is inactive: -16.6%.

With `S=C(S)N1CCNCC1` as the compound, how does the “activity change, negative = inhibition” value read?
The value was inactive: -1.56%.

Which activity change, negative = inhibition does the source give for `C[C@]12N[C@@H](Cc3ccccc31)c1ccccc12` here?
Its activity change, negative = inhibition is “inactive”.

For `NC(=O)CI`, which “activity change, negative = inhibition” value is on record?
The value was inactive: 12.5% [at 75.8 µM].

How did the “activity change, negative = inhibition” value turn out when `CN1CCC(O)(c2ccc(F)cc2)C(C(=O)c2ccc(F)cc2)C1` (configuration not stated) was run?
The value was inactive: 13.9%.

`CCOP(=S)(OCC)SCn1c(=O)oc2cc(Cl)ccc21` was tested. Which “activity change, negative = inhibition” value did it give?
Its value is inactive: -29.5%.

With `Cc1cccc(C)c1NC(=O)CN1CCCC1=O` as the compound, how does the “activity change, negative = inhibition” value read?
The value was inactive: 3.17% [at 75.8 µM].

For `CS(=O)(=O)Nc1ccc(Cc2noc(-c3ccc4[nH]cc(CCN)c4c3)n2)cc1`, which activity change, negative = inhibition is on record?
Its activity change, negative = inhibition is “inactive”.

How did the activity change, negative = inhibition turn out when `CC(C)C[C@H]1C(=O)N2CCCC2[C@]2(O)O[C@](NC(=O)[C@@H]3C=C4c5cccc6[nH]cc(c56)CC4N(C)C3)(C(C)C)C(=O)N12` (some centres not stated) was run?
The activity change, negative = inhibition was “inactive”.

For `c1ccc(N2CCCC3(CCNCC3)C2)nc1`, which “activity change, negative = inhibition” value is on record?
The value was inactive: 24.6%.

With `O=C(O)COc1ccc(Cl)cc1Cl` as the compound, how does the “activity change, negative = inhibition” value read?
Its value is inactive: 5.04%.

How did the activity change, negative = inhibition turn out when `CC(C)C[C@H](NC(=O)[C@H](Cc1ccccc1)NC(=O)CNC(=O)[C@H](CO)NC(=O)[C@@H](N)Cc1ccc(O)cc1)C(=O)N[C@H](C(=O)O)[C@H](C)O` was run?
The activity change, negative = inhibition was inactive: -6.92% [at 15.3 µM].

Which “activity change, negative = inhibition” value does the source give for `CCNc1nc(Cl)nc(NCC)n1` here?
The value was inactive: -18.5%.

With `c1ccc2sc(C3(NCC4CC4)CCCCC3)cc2c1` as the compound, how does the “activity change, negative = inhibition” value read?
Its value is inactive: 4.45%.

`C=CCC1=C(C)C(OC(=O)C2C(C=C(C)C)C2(C)C)CC1=O` (configuration not stated) was tested. Which “activity change, negative = inhibition” value did it give?
The value was inactive: -16.6% [at 320 µM].

Which “activity change, negative = inhibition” value does the source give for `CCC1(c2ccccc2)C(=O)NC(=O)NC1=O` here?
The value was inactive: 4%.

`COc1ccc2[nH]c3c(c2c1)CCNC3` was tested. Which “activity change, negative = inhibition” value did it give?
The value was inactive: 6.47% [at 75.8 µM].

`N#CC(C#N)=Cc1ccc(O)c(O)c1` was tested. Which activity change, negative = inhibition did it give?
Its activity change, negative = inhibition is “inactive”.

How did the “activity change, negative = inhibition” value turn out when `O=C(Nc1ccccc1)N1CCCC2(CCN(C(=O)Oc3ccccc3)CC2)C1` was run?
Its value is inactive: -3.17%.

With `C[C@H](NC(=O)[C@@H](N)Cc1ccc(O)cc1)C(=O)N[C@@H](Cc1ccccc1)C(=O)NCC(=O)N[C@@H](Cc1ccc(O)cc1)C(=O)N1CCC[C@H]1C(=O)N[C@@H](CO)C(N)=O` as the compound, how does the activity change, negative = inhibition read?
Its activity change, negative = inhibition is inactive: 14.2% [at 15.3 µM].

Which “activity change, negative = inhibition” value does the source give for `CCCCNC(C)(C)[P+](=O)O` here?
The value was inactive: 43.1%.

Which “activity change, negative = inhibition” value does the source give for `CC(C)(C)NC[C@H](O)COc1cccc2[nH]c(C#N)cc12` here?
Its value is inactive: 25.1%.

How did the “activity change, negative = inhibition” value turn out when `CC(C)C(Br)C(=O)NC(N)=O` (configuration not stated) was run?
The value was inactive: 3.14%.

For `COP(=O)(OC)OC=C(Cl)Cl`, which “activity change, negative = inhibition” value is on record?
The value was inactive: 24.2%.
